# The whole screen tested about 350,000 compounds, of which about 260 (0.074%) were called active. Inconclusive means that the source gave no clear call. Such entries were picked first, then a sample of the others. The call rests on the fitted dose curve; in most records, active means well fitted inhibition curve with a large enough effect; inconclusive means small, poorly fitted or top-dose-only effect; inactive means no such curve, though single readings can be large or run the other way. Potencies of inconclusive entries are doubtful fits and often do not repeat.
# Target: Ferritin light chain (Equus caballus) (UniProt P02791)
# Test: qHTS Assay for Identification of Novel General Anesthetics; further: nearly all actives have a fitted effect of over 20% in size
# Conditions: apoferritin/1-aminoanthracene competitive binding, fluorescence; activity change, negative = displacement: at 77.5 µM (top of the series)
# How it was run: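 Concentration-response curves derived by four-parameter Hill fitting of normalized fluorescence, where compounds displaced 1-AMA from 10 uM horse apoferritin following a brief 10 min room-temperature incubation; propofol titration acted as positive control.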
# On the % scale 0 is the no-effect control and ±100 the full control effect; potency means the concentration at half of the fitted maximal effect; tags describe the fitted curve by direction and shape.
# Chain of UniProt P02791 (P02791 whole entry, looked up): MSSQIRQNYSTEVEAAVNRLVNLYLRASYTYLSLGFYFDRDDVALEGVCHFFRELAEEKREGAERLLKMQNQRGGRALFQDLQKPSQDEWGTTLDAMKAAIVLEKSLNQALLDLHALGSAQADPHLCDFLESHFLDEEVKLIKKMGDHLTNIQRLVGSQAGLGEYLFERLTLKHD
Compound,Potency,"activity change, negative = displacement"
COc1ccc(N2C(=O)CS/C2=C\[N+](=O)[O-])cc1,"inconclusive: 12.6 µM [inhibitor, partial curve]",–
CCC(C)(C)n1nnnc1C(c1cc2cccc(C)c2[nH]c1=O)N1CCCC1 (centres undefined),–,inactive: 2.76%
Cc1ccc(NC(=O)c2cc(=O)[nH]c3ccccc23)cc1,–,inactive: 0.711%
COC(=O)C(NNc1ccccc1C)(NC(=O)c1ccc(F)cc1)C(F)(F)F (centres undefined),"inconclusive: 39.8 µM [inhibitor, single point]",–
O=C(Cn1c(=O)n(Cc2ccco2)c(=O)c2ccccc21)Nc1cccc(F)c1,"inconclusive: 7.08 µM [inhibitor, full curve, poor fit]",–
O=C(COC(=O)C(O)c1ccccc1)c1ccc2c(c1)OCCO2 (centres undefined),–,inactive: -22.6%
CCCCNC(=O)CSc1nc2ccc(N3CCOCC3)cc2c(=O)n1CCc1ccccc1,–,inactive: 3.36%
COc1ccc(-n2nc(C(=O)NCC(=O)N3CCC(C)CC3)c3ccccc3c2=O)cc1,"inconclusive: 50.1 µM [inhibitor, single point]",–
COc1cc(N=c2ssnc2Cl)c(OC)cc1Cl,"inconclusive: 22.4 µM [inhibitor, partial curve]",–
Cc1ccc(N2CCN(C(=O)c3cn(C)c4ccc(S(=O)(=O)N5CCC(C)CC5)cc4c3=O)CC2C)cc1 (centres undefined),"inconclusive: 50.1 µM [inhibitor, single point]",–
COc1ccc(NC(=O)CCCc2nnc3n(C(C)C)c(=O)c4sccc4n23)cc1Cl,"inconclusive: 3.98 µM [inhibitor, full curve]",–
CC(=O)N1c2ccc(S(=O)(=O)NCCC(=O)NC3CCCC(C)C3C)cc2CC1C (centres undefined),"inconclusive: 31.6 µM [inhibitor, partial curve]",–
COc1cc(/C=C/C(=O)OC2CC3CCC2(C)C3(C)C)ccc1O (centres undefined),"inconclusive: 17.8 µM [inhibitor, partial curve]",–
O=C(CSc1nccn1Cc1ccco1)Nc1ccc(OC(F)(F)F)cc1,–,inactive: -11%
O=C(O)/C=C/C(=O)NNC(=O)c1ccccc1Br,–,inactive: -12.1%
COc1ccc(C)cc1S(=O)(=O)NCCC1=CCCCC1,"inconclusive: 14.1 µM [inhibitor, partial curve]",–
COc1ccccc1CCNC(=O)c1csc2c1CCCC2,"inconclusive: 31.6 µM [inhibitor, partial curve]",–
Cn1c(CNC(=O)c2ccc(Cl)cc2)nnc1SCC(=O)Nc1sc2c(c1C#N)CCCC2,"inconclusive: 31.6 µM [inhibitor, partial curve]",–
CCN(CC)S(=O)(=O)c1ccc(NS(=O)(=O)c2cccc(C)c2)cc1,"inconclusive: 50.1 µM [inhibitor, single point]",–
CCCCn1nc(NC(=O)CC(C)C)c2cc3cc(OC)ccc3nc21,–,inactive: 50.9%
O=C1CCCC2=C1Sc1ccccc1N2,–,inactive: -2.78%
CC1(C)CC2CC(C)(CN2S(=O)(=O)c2ccc(C(=O)Nc3ccc(Cl)c(S(=O)(=O)N4CCOCC4)c3)cc2)C1 (centres undefined),"inconclusive: 2.82 µM [inhibitor, full curve, poor fit]",–

Compound,Potency,"activity change, negative = displacement"
Clc1cccc(NCc2nnc(SCc3ccccc3Cl)o2)c1,"inconclusive: 6.31 µM [inhibitor, full curve]",–
CC1CCN(C(=O)COC(=O)Cc2c[nH]c3ccccc23)CC1,"inconclusive: 31.6 µM [inhibitor, partial curve]",–
Cc1cc(Oc2ccc(-c3ccccc3)cc2)n2ncnc2n1,"inconclusive: 31.6 µM [inhibitor, single point]",–
Oc1ccccc1CNc1ncc(Br)cc1Br,"inconclusive: 7.08 µM [inhibitor, full curve]",–
O=C(NCc1cccc2ccccc12)[C@H]1C[C@@H]1[C@H](NP(=O)(c1ccccc1)c1ccccc1)c1ccccc1,"inconclusive: 7.94 µM [inhibitor, full curve]",–
CC(C)Oc1ccc(C(=O)N2CCC(c3nc4ccccc4s3)CC2)cc1,–,inactive: 2.44%
CCC(=O)Nc1ccc(Oc2ccc(NC(=O)CC)c(NC(=O)CC)c2)cc1,–,inactive: -3.74%
O=C(c1ccccc1)c1ccc(OCC(O)CN2CCN(Cc3ccccc3)CC2)cc1 (centres undefined),"inconclusive: 22.4 µM [inhibitor, partial curve]",–
CC1=C(C(=O)NCc2cccc(Cl)c2)C2(CCCCCC2)OC1=O,"inconclusive: 35.5 µM [inhibitor, partial curve]",–
CC(C)(C)c1cc(C(c2cccnc2)N2CCN(CCO)CC2)cc(C(C)(C)C)c1O (centres undefined),"inconclusive: 20 µM [inhibitor, partial curve]",–
CC(NC(=O)COc1ccccc1F)C1CC2CCC1C2 (centres undefined),"inconclusive: 28.2 µM [inhibitor, partial curve]",–
Cc1ccc(/C=N/NC(=O)C(C)Oc2cccc3ccccc23)o1 (centres undefined),"inconclusive: 12.6 µM [inhibitor, partial curve]",–
N#CC1=C(N)NC(SCC(=O)Nc2ccccc2)=C(C#N)C12CCCC2,"inconclusive: 39.8 µM [inhibitor, single point]",–
O=c1c2ccccc2[nH]c(=S)n1CCN1CCN(Cc2ccccc2)CC1,–,inactive: -11.9%
COc1cccc(-c2n[nH]c3c2CCC3)c1,"inconclusive: 31.6 µM [inhibitor, partial curve]",–
CC1SC2(NC1=O)C1CC3CC(C1)CC2C3 (centres undefined),"inconclusive: 5.62 µM [inhibitor, full curve]",–
O=C(Cn1c(=O)n(Cc2ccco2)c(=O)c2sc3ccccc3c21)Nc1ccc(F)cc1F,–,inactive: -15.3%
O=C1c2ccccc2-c2onc3ccc(N4CCCC4)c1c23,"inconclusive: 14.1 µM [inhibitor, partial curve]",–
O=S(N1CCCCCC1)C12CC3CC(CC(C3)C1)C2 (centres undefined),"inconclusive: 20 µM [inhibitor, partial curve]",–
Cc1cc(C(F)(F)F)nc(NCc2ccc(F)cc2)n1,"inconclusive: 25.1 µM [inhibitor, partial curve]",–
Cc1cccc(CSc2nnc(NC(=O)c3ccco3)s2)c1,"inconclusive: 7.08 µM [inhibitor, full curve, poor fit]",–
CCN(CCCNC(=O)CN1N=C(c2ccccc2)CCC1=O)c1cccc(C)c1,"inconclusive: 14.1 µM [inhibitor, partial curve]",–

Compound,Potency,"activity change, negative = displacement"
COc1ccc(/C=N\NC(=O)c2ccc([N+](=O)[O-])cc2)cc1COc1c(F)c(F)cc(F)c1F,"inconclusive: 6.31 µM [inhibitor, partial curve]",–
CC1CCN(S(=O)(=O)c2ccc3[nH]ccc3c2)CC1,"inconclusive: 56.2 µM [inhibitor, single point]",–
CC(C)C[C@H](NC(=O)c1nc[nH]c1C(=O)NC1CCN(C(=O)OC(C)(C)C)CC1)C(=O)OCc1ccccc1,"inconclusive: 2.82 µM [inhibitor, full curve, poor fit]",–
COc1ccccc1CNC(=O)CNC(=O)c1sc2ccccc2c1Cl,"inconclusive: 31.6 µM [inhibitor, partial curve]",–
CC(OC(=O)c1ccc(NS(=O)(=O)c2ccc3[nH]c(=O)[nH]c3c2)cc1)C(=O)Nc1ccc(Cl)cc1 (centres undefined),"inconclusive: 14.1 µM [inhibitor, partial curve]",–
COc1ccc(-c2cc(C(=O)O)c3c(C)nn(-c4ccccn4)c3n2)cc1,–,inactive: 5.2%
COc1ccc(C(=O)N2CCN(S(=O)(=O)c3ccc(Cl)cc3)CC2)cc1OC,–,inactive: -8.99%
COc1ccc(-c2nc(NC(=O)Cn3ccc(C(F)(F)F)n3)sc2C)cc1,"inconclusive: 12.6 µM [inhibitor, partial curve]",–
CC(C)(C)c1cc(/C=N/NC(=O)Cc2nc3ccccc3[nH]2)cc(C(C)(C)C)c1O,"inconclusive: 3.55 µM [inhibitor, partial curve]",–
CC(C)(C)C(=O)NC(=S)Nc1ccc(Cc2ccncc2)cc1,"inconclusive: 3.98 µM [inhibitor, full curve]",–
CCOC(=O)C(C)Sc1nc(-c2ccco2)cc(C(F)(F)F)c1C#N (centres undefined),"inconclusive: 10 µM [inhibitor, partial curve, poor fit]",–
COc1ccc(OC2C=CC(C#Cc3ccc(Br)cc3)OC2CO)c(C(C)(C)C)c1 (centres undefined),"inconclusive: 7.08 µM [inhibitor, single point]",–
COc1ccc(CCNC(=O)c2ccc3nc(-c4ccco4)c(-c4ccco4)nc3c2)cc1OC,–,inactive: -3.35%
COc1ccc(OC)c(N2C(=O)C(Cl)=C(N3CCCCC3)C2=O)c1,"inconclusive: 31.6 µM [inhibitor, partial curve]",–
O=S(=O)(NCCc1nnc2ccc(SCc3cccc(Cl)c3)nn12)c1ccccc1,"inconclusive: 25.1 µM [inhibitor, partial curve]",–
CCN1CCN(Cc2ccc(NC(=O)c3cc(NC(=O)c4cc5cccc(OC)c5o4)cc(OC)c3)cc2C(F)(F)F)CC1,"inconclusive: 35.5 µM [inhibitor, partial curve]",–
COc1ccc(CN2CCC(n3nccc3NC(=O)C3CCCC3)CC2)cc1,–,inactive: -9.46%
O=C(OCC(=O)C12CC3CC(CC(C3)C1)C2)c1cccnc1,"inconclusive: 10 µM [inhibitor, partial curve]",–
CSCCC(NS(=O)(=O)/C=C/c1ccccc1)C(=O)N1CCC(C)CC1 (centres undefined),"inconclusive: 28.2 µM [inhibitor, partial curve]",–
CC[C@H](C)[C@H](NC(=O)[C@H](CCCNC(=N)N)NC(=O)[C@@H](NC(=O)[C@H](CCCNC(=N)N)NC(=O)[C@H](CCCCN)NC(=O)[C@H](CCCNC(=N)N)NC(=O)[C@@H](NC(=O)[C@H](CC(N)=O)NC(=O)[C@@H](N)CS)[C@@H](C)O)[C@@H](C)CC)C(=O)N[C@@H](CCC(N)=O)C(=O)N[C@@H](CCCNC(=N)N)C(=O)NCC(=O)N1CCC[C@H]1C(=O)NCC(=O)N[C@@H](CCCNC(=N)N)C(=O)N[C@@H](C)C(=O)N[C@@H](Cc1ccccc1)C(=O)N[C@H](C(=O)N[C@H](C(=O)N[C@H](C(=O)NCC(=O)N[C@@H](CCCCN)C(=O)O)[C@@H](C)CC)[C@@H](C)O)C(C)C,–,inactive: -9.39%
